Data published in article PMC12724384.
No constants are given. Whether binding was seen depends on the method and setting. In cells and extracts the contact can be indirect. Some entries that bind do so weakly or less than the wild type. For some of these results: Where a sequence is shown, tags or fusion partners need not be part of it.

Sequences of proteins named here, by UniProt entry; tags and fusion partners are left off. Residues count along the entry.
UniProt Q7Z434: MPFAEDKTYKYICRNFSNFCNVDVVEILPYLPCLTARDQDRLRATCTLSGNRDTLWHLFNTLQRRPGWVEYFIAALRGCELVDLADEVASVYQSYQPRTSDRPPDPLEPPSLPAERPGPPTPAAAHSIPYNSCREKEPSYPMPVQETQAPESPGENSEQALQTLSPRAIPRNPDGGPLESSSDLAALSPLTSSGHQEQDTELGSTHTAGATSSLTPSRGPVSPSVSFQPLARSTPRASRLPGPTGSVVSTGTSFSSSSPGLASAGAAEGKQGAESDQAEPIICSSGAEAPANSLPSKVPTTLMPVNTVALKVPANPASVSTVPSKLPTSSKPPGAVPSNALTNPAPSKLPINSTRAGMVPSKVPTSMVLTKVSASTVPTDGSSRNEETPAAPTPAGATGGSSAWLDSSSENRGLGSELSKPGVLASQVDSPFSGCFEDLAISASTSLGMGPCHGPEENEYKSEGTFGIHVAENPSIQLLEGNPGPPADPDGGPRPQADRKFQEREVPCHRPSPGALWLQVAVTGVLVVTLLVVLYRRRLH
UniProt P03431: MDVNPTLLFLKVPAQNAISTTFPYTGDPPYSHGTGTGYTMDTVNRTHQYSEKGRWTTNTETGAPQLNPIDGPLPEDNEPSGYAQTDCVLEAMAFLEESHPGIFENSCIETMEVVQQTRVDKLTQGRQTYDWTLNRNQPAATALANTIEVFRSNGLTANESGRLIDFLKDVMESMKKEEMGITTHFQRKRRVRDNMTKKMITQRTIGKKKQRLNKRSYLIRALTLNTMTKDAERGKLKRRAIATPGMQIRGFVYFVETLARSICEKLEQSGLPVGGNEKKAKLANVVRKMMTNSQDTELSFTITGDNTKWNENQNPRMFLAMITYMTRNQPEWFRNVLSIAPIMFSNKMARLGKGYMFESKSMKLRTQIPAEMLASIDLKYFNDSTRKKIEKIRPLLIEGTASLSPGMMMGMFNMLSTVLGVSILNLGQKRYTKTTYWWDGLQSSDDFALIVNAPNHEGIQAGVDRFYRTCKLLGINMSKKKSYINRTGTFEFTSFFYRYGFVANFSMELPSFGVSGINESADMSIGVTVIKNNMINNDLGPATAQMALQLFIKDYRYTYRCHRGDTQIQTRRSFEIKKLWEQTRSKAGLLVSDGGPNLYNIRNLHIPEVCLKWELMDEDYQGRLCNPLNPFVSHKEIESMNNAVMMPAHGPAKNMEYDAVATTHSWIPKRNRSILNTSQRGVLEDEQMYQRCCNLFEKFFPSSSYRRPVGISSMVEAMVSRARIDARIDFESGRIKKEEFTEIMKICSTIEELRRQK
UniProt P03452, residues 18-565: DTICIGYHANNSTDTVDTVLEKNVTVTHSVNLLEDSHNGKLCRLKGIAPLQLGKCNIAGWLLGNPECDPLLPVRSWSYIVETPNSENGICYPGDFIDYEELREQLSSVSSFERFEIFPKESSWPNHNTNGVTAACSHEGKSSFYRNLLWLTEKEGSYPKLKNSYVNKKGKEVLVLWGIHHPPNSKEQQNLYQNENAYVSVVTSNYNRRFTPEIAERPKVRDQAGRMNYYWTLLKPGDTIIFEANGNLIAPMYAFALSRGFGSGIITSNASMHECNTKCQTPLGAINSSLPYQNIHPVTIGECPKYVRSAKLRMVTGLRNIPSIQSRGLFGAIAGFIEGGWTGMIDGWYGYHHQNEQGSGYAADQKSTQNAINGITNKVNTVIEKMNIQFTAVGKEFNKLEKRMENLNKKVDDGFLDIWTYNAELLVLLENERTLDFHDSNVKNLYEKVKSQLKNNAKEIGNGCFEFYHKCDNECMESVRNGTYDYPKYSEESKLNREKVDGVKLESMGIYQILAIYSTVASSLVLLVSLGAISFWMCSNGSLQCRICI
UniProt P03468: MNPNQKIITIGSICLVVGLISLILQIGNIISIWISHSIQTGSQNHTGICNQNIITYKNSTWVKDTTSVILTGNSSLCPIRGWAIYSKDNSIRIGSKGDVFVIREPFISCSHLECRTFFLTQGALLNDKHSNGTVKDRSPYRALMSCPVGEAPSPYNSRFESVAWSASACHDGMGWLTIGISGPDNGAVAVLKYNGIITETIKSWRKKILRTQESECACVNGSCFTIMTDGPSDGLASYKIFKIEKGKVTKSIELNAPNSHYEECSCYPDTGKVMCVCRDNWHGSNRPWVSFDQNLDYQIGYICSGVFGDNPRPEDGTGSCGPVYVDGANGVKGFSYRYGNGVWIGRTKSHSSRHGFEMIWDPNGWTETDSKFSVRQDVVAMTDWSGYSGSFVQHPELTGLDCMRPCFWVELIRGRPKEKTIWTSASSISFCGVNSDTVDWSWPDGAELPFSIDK

Assays:
Myc-TRIM31 (human) = molecular target: T1, Myc-TRIM31 (human) (UniProt Q9BZY9); assay: co-IP
T1 sequence: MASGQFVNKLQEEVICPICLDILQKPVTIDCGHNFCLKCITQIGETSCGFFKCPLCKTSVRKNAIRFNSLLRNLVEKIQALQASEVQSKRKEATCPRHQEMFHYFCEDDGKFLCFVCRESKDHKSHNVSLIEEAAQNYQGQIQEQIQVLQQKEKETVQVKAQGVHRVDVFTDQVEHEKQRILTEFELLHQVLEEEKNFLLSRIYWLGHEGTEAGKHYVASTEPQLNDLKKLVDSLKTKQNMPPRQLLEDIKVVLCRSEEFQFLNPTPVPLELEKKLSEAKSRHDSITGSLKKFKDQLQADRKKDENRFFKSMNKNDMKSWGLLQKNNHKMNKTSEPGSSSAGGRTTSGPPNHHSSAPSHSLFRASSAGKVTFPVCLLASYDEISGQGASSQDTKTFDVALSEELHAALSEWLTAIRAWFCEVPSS

[1] = molecular target: T2, Flag-TRIM31 (tripartite motif protein 31) (human) (UniProt Q9BZY9); assay: co-IP
T2 sequence: T1 sequence

[2] = molecular target: T3, endogenous TRIM31 (human (endogenous in HEK293T)) (UniProt Q9BZY9); assay: co-IP
T3 sequence: T1 sequence

[3] = molecular target: T4, TRIM31 (wild type, as in Fig. 4B, 4C and S2B; tag not given) (human) (UniProt Q9BZY9); assay: co-IP
T4 sequence: T1 sequence

GST-TRIM31 (human) = molecular target: T5, GST-TRIM31 (human) (UniProt Q9BZY9); assay: pull-down
T5 sequence: T1 sequence

Substance | binding (Myc-TRIM31 (human)) | binding [1] | binding [2] | binding [3] | binding (GST-TRIM31 (human))
HA-MAVS (mitochondrial antiviral signaling protein) (from UniProt Q7Z434 1-540) | binds |  |  |  | 
basic polymerase 1 (PB1) of PR8/H1N1, from infection (from UniProt P03431 1-757) |  | binds | binds |  | 
hemagglutinin (HA) of PR8/H1N1, from infection (from UniProt P03452) |  | binds | binds |  | 
Flag-tagged HA from PR8-H1N1 (from UniProt P03452) | binds |  |  | binds | binds
M1 of PR8/H1N1, from infection (from UniProt P03485 1-252) |  | no binding |  |  | 
NA of PR8/H1N1, from infection (from UniProt P03468 1-454) |  | no binding |  |  | 
Flag-tagged PB1 from PR8-H1N1 (from UniProt P03431 1-757) | binds |  |  | binds | binds
